From ChEMBL document CHEMBL1201862, “PubChem BioAssay data set” (2004) come the findings set out here.

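Assay format: 96-well plates, 48-hour exposure. GI50: concentration for 50% inhibition of growth.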 Active and inactive are the calls of the source. Cut-off read from the data, not from the text of the source: active = GI50 up to about 1.1 µM and inactive = higher.

The experiment deals with NCI-H322M. The experiment is described as follows: NCI anticancer screen, dose series, 48 h.
For the compound `COc1ccc(CNc2nc3cc(C(F)(F)F)ccc3nc2C(=O)O)cc1`, the GI50 is inactive: 23.9 µM.

Take `COC(=O)CCC1(CCC(=O)OC)CCCCCCC(CCC(=O)OC)(CCC(=O)OC)C(=O)C1=O`: the GI50 is inactive: > 100 µM. For `O=C(Nc1ccc(Cl)c(C(F)(F)F)c1)C(=O)C(C(=O)/C=C/c1ccccc1)C1OC(=O)c2ccccc21` (stereo not given) the value was inactive: > 100 µM; for `Oc1ccc(-c2nc(-c3cccnc3)c(-c3ccc(F)cc3)[nH]2)cc1`, inactive: 21.5 µM; for `Cn1cnc([N+](=O)[O-])c1Sc1n[nH]c(-c2ccc(Cl)cc2)n1`, inactive: 19.9 µM.

`Cc1nn(C(=O)Cc2ccccc2)c2c1C(c1ccccc1O)SC(=N)N2` (stereo not given): the GI50 was inactive: > 100 µM. For `CC1=CCC([C@@](C)(O)CCCC(C)(C)N=C=S)CC1` (stereo not given in full) the value was inactive: 17.7 µM; for `Cc1ccc(S(=O)(=O)c2ccsc2NC(=O)C(F)(F)F)cc1`, inactive: 37.9 µM. As to `O=C1CCCCC1CN1CCCC1` (stereo not given), the GI50 was inactive: > 100 µM. Take `Oc1cc(Br)cc2cccnc12`: the GI50 was inactive: 7.73 µM. For the compound `CN(C)c1ccc(/C=N/NC2=N/C(=C\c3ccco3)C(=O)N2)cc1`, the GI50 was inactive: > 100 µM.

Turning to `O=C1c2cnccc2Cc2cccc3c2N1c1ccccc1S3`, the GI50 is inactive: 22.6 µM.

Turning to `O=C(O)C1=C(C(=O)O)Oc2ccccc2O1`, the GI50 is inactive: > 100 µM. In the case of `CC(C)=C1CCC(CN2CCCC2)C1=O` (stereo not given), the GI50 was inactive: > 100 µM. For `CC(=O)N1N=C(c2ccccc2Nc2ccccc2C2=NN(C(C)=O)C(c3ccccc3)O2)OC1c1ccccc1` (stereo not given), the GI50 was inactive: > 100 µM.

With `N#CSC#Cc1ccc(C#CSC#N)cc1`, the GI50 is inactive: 45 µM.

In the case of `O=c1[nH]nc(Cc2ccc(Cl)cc2)n1/N=C/c1ccco1`, the GI50 is inactive: > 100 µM. Consider `CC(=N\c1ccncc1)/C(C)=N/c1ccncc1`, for which the GI50 was inactive: > 100 µM.

For the compound `O=C(Cn1c(=O)ccn(C2OC(CO)C(O)C2F)c1=O)c1ccc(F)cc1` (stereo not given), the GI50 is inactive: > 100 µM.

As to `COc1ccc(/C=N/n2c(Cc3ccc(Cl)cc3)n[nH]c2=O)c(OC)c1`, the GI50 is inactive: 40.4 µM. For `Cn1cc2c(n1)c(N/N=C/c1ccccc1)nn1nnnc21`, the GI50 is inactive: > 100 µM.

Turning to `O=C1C=CC2(O[C@H](c3ccccc3)[C@@H](c3ccccc3)O2)C(SC(=O)c2ccccc2)C1` (stereo not given in full), the GI50 is inactive: 12 µM. For `CCCN(CCCCC(NC(C)=O)C(=O)NCc1ccccc1)C(=O)N(C)N=O` (stereo not given) the value was inactive: > 100 µM; for `CCCCCNC(=O)CCCCCCCCCCCNC(=O)CCCCCCCCCCN1C=CC(=CC=C2C=CC(=O)C=C2)C=C1`, inactive: > 100 µM; for `Cc1cccc2c1CC(C1OC(=O)c3c(C)cccc31)C2=O` (stereo not given), inactive: > 100 µM. Consider `O=C(OCC1CCCN2CCCCC12)c1ccncc1` (stereo not given), for which the GI50 was inactive: > 100 µM. Turning to `CC(C)Oc1cccc(N2C(CCc3c[nH]c4ccc(Br)cc34)=NS(=O)(=O)c3cnccc32)c1`, the GI50 was inactive: > 100 µM. For the compound `C/C(=C\[Si](C)(C)c1ccco1)C(C)(O)[C@H](C)O` (stereo not given in full), the GI50 is inactive: > 100 µM. For `CCSc1nc(-c2ccc(OC)cc2)c(C#N)c(=O)n1C1OCC(OC(C)=O)C(OC(C)=O)C1OC(C)=O` (stereo not given) the value was active: 0.253 µM; for `COc1cc(C(=O)N(C(=S)OC23CC4CC(CC(C4)C2)C3)c2ccccc2)cc(OC)c1OC`, inactive: 32.7 µM. As for `CC1(C)OCC(C(O)C2OC(C)(C)OC2C=O)O1` (stereo not given), the GI50 is inactive: > 100 µM. Regarding `CN1C2C=C(c3ccccc3)CC1CC2` (stereo not given), the GI50 is inactive: > 100 µM.

With `Cc1ccc2[nH]c(=O)c(-c3cnc(O)nn3)c(O)c2c1`, the GI50 was inactive: > 100 µM.

`O=C(/C(=C\c1ccc(Cl)cc1)c1ccccc1)c1ccccc1`: the GI50 is inactive: > 100 µM. In the case of `COc1ccc2c(NCCCCCCNc3c4ccccc4nc4cc(OC)ccc34)c3ccccc3nc2c1`, the GI50 was active: 0.0771 µM.

`CC(=O)[C@@]1(O)CC[C@H]2[C@@H]3C[C@H](C)C4=CC(=O)CC[C@]4(C)[C@H]3[C@@H](O)C[C@@]21C`: the GI50 was inactive: > 100 µM. For `NCCNC(=O)CN(CC(=O)O)C1CCCCC1N(CC(=O)O)CC(=O)O` (stereo not given), the GI50 is inactive: > 100 µM. Regarding `CC(=O)O[C@H]1/C(=C/c2ccc(N(C)C)cc2)C[C@H]2[C@@H]3CC=C4C[C@@H](N5CCCC5)CC[C@]4(C)[C@H]3CC[C@]12C`, the GI50 is inactive: > 100 µM. On to `CCCSCC(P(=O)(O)O)P(=O)(O)O.NC1CCCCC1`, for which the GI50 is inactive: > 100 µM.

Take `CCOC(=O)c1c(NC(=S)NCc2ccccc2)sc2c1CCN(C)C2`: the GI50 is inactive: > 100 µM.

For `Cc1nn(-c2ccccc2)c2c1C(c1cc3ccccc3nc1Cl)NC(=O)N2` (stereo not given), the GI50 was inactive: 32.7 µM. For the compound `CNN1C(=O)c2c(N)c(C#N)c(-c3ccccc3)c(-c3ccccc3)c2C1=O`, the GI50 is inactive: 63.5 µM. In the case of `CCCCCCCc1ccc(-c2nnc(/N=N/c3ccc(OCCCCC)cc3)s2)s1`, the GI50 is inactive: > 100 µM. Regarding `CC(=O)NCc1nc(C#N)c(N)o1`, the GI50 was inactive: > 100 µM. In the case of `CC(=O)Nc1ccc(S(=O)(=O)N/N=C/c2cc(I)cc([N+](=O)[O-])c2O)cc1`, the GI50 was inactive: > 100 µM. Turning to `CCn1c(SCC(=O)N/N=C2\SCC(=O)N2c2ccc(C)cc2)nc2ccccc2c1=O`, the GI50 is inactive: 15.1 µM. For `COc1cc2c(cc1OC)[C@H]1C(COC(=O)c3ccccc3)CS/C(=N/c3ccccc3)N1CC2` (stereo not given in full) the value was inactive: > 100 µM; for `c1ccc2c(CC3NCCN3)cccc2c1`, inactive: > 100 µM; for `COc1ccc(N2C(=O)CC(Cl)C2=O)cc1` (stereo not given), inactive: > 100 µM. `FC(F)(F)c1cnc(N/N=C(/c2ccccc2)c2ccccn2)c(Cl)c1`: the GI50 was inactive: 3.61 µM. As to `O=[N+]([O-])C1(C2([N+](=O)[O-])CCCC2)CCCC1`, the GI50 is inactive: > 100 µM. Take `O=C1CCCC(=O)N1n1c(Cc2ccccc2)n[nH]c1=O`: the GI50 is inactive: > 100 µM. Turning to `COc1ccc(/C=N/NS(=O)(=O)c2ccc(/C=C3\NC(=O)N(C)C3=O)cc2)cc1`, the GI50 is inactive: 69.5 µM. Next, `CC12C(=CC(=O)CC1SCCS(=O)(=O)O)C(C#N)=C(N)N2c1ccc(Cl)c(Cl)c1` (stereo not given): inactive: > 100 µM; `CC(=O)OC12c3ccccc3-c3ccccc3C1C(C(=O)O)C2(Cl)C(=O)O` (stereo not given): inactive: > 10 µM.

Turning to `O=c1c(C(c2cccnc2)c2c(O)oc3cc(O)ccc3c2=O)c(O)oc2cc(O)ccc12`, the GI50 was inactive: > 100 µM. `CC(C)(C)OC(=O)c1cnc(Cl)cn1`: the GI50 is inactive: 29.9 µM. Consider `Nc1nc(CCc2n[nH]c(N)n2)n[nH]1`, for which the GI50 is inactive: > 100 µM.

With `Cc1ncc([N+](=O)[O-])n1CC(O)Cn1ccnc1[N+](=O)[O-]` (stereo not given), the GI50 is inactive: > 100 µM. Consider `CCCCCCCCCCCCCCCCCCOCC(C[N+]1(C)CCC(O)CC1)OCC` (stereo not given), for which the GI50 is inactive: 11.1 µM.
